This is one part of the list.
How the values were obtained:
Assay in all cases: glycan array binding signal (z-score within array); higher = stronger binding
Conditions in all cases: glycan notation: IUPAC condensed, linker removed
[1] = molecular target: Neu4Ac5Ac(a2-3)Gal(b1-4)Glc
Procedure, shortened: (§1)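 Glycan array data were curated from 3228 arrays in the Consortium for Functional Glycomics database and kept only where the protein sequence was available. Glycan names were converted to IUPAC-condensed notation, and columns mapping to the same glycan were averaged. The binding signal is a within-array Z-score, averaged across arrays of the same protein sequence at different concentrations or buffers and across linkers. Negative Z-scores can be read as non-binding.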

[2] = molecular target: Neu5Ac(a2-3)Gal
Procedure, shortened: as §1

[3] = molecular target: Neu5Ac(a2-3)Gal(b1-3)GalNAc(b1-4)Gal(b1-4)Glc
Procedure, shortened: as §1

[4] = molecular target: Neu5Ac(a2-3)Gal(b1-3)GalNAc(b1-4)[Neu5Ac(a2-3)]Gal(b1-4)Glc
Procedure, shortened: as §1

[5] = molecular target: Neu5Ac(a2-3)Gal(b1-3)GalNAc(b1-4)[Neu5Ac(a2-8)Neu5Ac(a2-3)]Gal(b1-4)Glc
Procedure, shortened: as §1

[6] = molecular target: Neu5Ac(a2-3)Gal(b1-3)GlcNAc(b1-3)Gal(b1-4)Glc
Procedure, shortened: as §1

[7] = molecular target: Neu5Ac(a2-3)Gal(b1-3)GlcNAc(b1-3)[Fuc(a1-3)[Gal(b1-4)]GlcNAc(b1-6)]Gal(b1-4)Glc
Procedure, shortened: as §1

[8] = molecular target: Neu5Ac(a2-3)Gal(b1-3)[Fuc(a1-4)]GlcNAc
Procedure, shortened: as §1

[9] = molecular target: Neu5Ac(a2-3)Gal(b1-3)[Fuc(a1-4)]GlcNAc(b1-3)Gal(b1-4)Glc
Procedure, shortened: as §1

[10] = molecular target: Neu5Ac(a2-3)Gal(b1-3)[Neu5Ac(a2-6)]GalNAc
Procedure, shortened: as §1

[11] = molecular target: Neu5Ac(a2-3)Gal(b1-3)[Neu5Ac(a2-6)]GlcNAc(b1-3)Gal(b1-4)Glc
Procedure, shortened: as §1

[12] = molecular target: Neu5Ac(a2-3)Gal(b1-4)Glc
Procedure, shortened: as §1

[13] = molecular target: Neu5Ac(a2-3)Gal(b1-4)GlcNAc
Procedure, shortened: as §1

[14] = molecular target: Neu5Ac(a2-3)Gal(b1-4)GlcNAc(b1-2)Man(a1-3)[Neu5Ac(a2-3)Gal(b1-4)GlcNAc(b1-2)Man(a1-6)]Man(b1-4)GlcNAc(b1-4)[Fuc(a1-6)]GlcNAc
Procedure, shortened: as §1

[15] = molecular target: Neu5Ac(a2-3)Gal(b1-4)GlcNAc(b1-3)Gal(b1-4)Glc
Procedure, shortened: as §1

[16] = molecular target: Neu5Ac(a2-3)Gal(b1-4)GlcNAc6S(b1-3)Gal6S(b1-3)GlcNAc6S
Procedure, shortened: as §1

[17] = molecular target: Neu5Ac(a2-3)Gal(b1-4)[Fuc(a1-3)]GlcNAc(b1-3)Gal
Procedure, shortened: as §1

[18] = molecular target: Neu5Ac(a2-3)Gal(b1-4)[Fuc(a1-3)]GlcNAc(b1-3)Gal(b1-4)Glc
Procedure, shortened: as §1

[19] = molecular target: Neu5Ac(a2-3)Gal(b1-4)[Fuc(a1-3)]GlcNAc(b1-3)Gal(b1-4)[Fuc(a1-3)]GlcNAc(b1-3)Gal(b1-4)Glc
Procedure, shortened: as §1

[20] = molecular target: Neu5Ac(a2-3)Gal(b1-4)[Fuc(a1-3)]GlcNAc6S(b1-3)Gal(b1-4)Glc
Procedure, shortened: as §1

[21] = molecular target: Neu5Ac(a2-3)Gal(b1-4)[Fuc(a1-3)]GlcNAc6S(b1-3)Gal6S(b1-3)GlcNAc6S
Procedure, shortened: as §1

[22] = molecular target: Neu5Ac(a2-3)Gal6S(b1-4)[Fuc(a1-3)]GlcNAc(b1-3)Gal(b1-4)Glc
Procedure, shortened: as §1

[23] = molecular target: Neu5Ac(a2-3)Gal6S(b1-4)[Fuc(a1-3)]GlcNAc6S(b1-3)Gal(b1-4)Glc
Procedure, shortened: as §1

[24] = molecular target: Neu5Ac(a2-3)[GalNAc(b1-4)]Gal(b1-3)GalNAc(b1-4)[Neu5Ac(a2-3)]Gal(b1-4)Glc
Procedure, shortened: as §1

[25] = molecular target: Neu5Ac(a2-3)[GalNAc(b1-4)]Gal(b1-4)Glc
Procedure, shortened: as §1

[26] = molecular target: Neu5Ac(a2-6)Gal(b1-3)GlcNAc(b1-3)[Fuc(a1-3)[Gal(b1-4)]GlcNAc(b1-6)]Gal(b1-4)Glc
Procedure, shortened: as §1

[27] = molecular target: Neu5Ac(a2-6)Gal(b1-3)GlcNAc(b1-3)[Gal(b1-4)GlcNAc(b1-6)]Gal(b1-4)Glc
Procedure, shortened: as §1

[28] = molecular target: Neu5Ac(a2-6)Gal(b1-4)Glc
Procedure, shortened: as §1

[29] = molecular target: Neu5Ac(a2-6)Gal(b1-4)GlcNAc
Procedure, shortened: as §1

[30] = molecular target: Neu5Ac(a2-6)Gal(b1-4)GlcNAc(b1-2)Man(a1-3)[Neu5Ac(a2-6)Gal(b1-4)GlcNAc(b1-2)Man(a1-6)]Man(b1-4)GlcNAc(b1-4)GlcNAc
Procedure, shortened: as §1

[31] = molecular target: Neu5Ac(a2-6)Gal(b1-4)GlcNAc(b1-2)Man(a1-3)[Neu5Gc(a2-6)Gal(b1-4)GlcNAc(b1-2)Man(a1-6)]Man(b1-4)GlcNAc(b1-4)GlcNAc
Procedure, shortened: as §1

Measured: glycan array binding signal (z-score)

B1: CLECSF8 (Mus musculus), Q9Z2H6 (protein)
chain: HYFLRWTRGSVVKLSDYHTRVTCIREEPQPGATGGTWTCCPVSWRAFQSNCYFPLNDNQTWHESERNCSGMSSHLVTINTEAEQNFVTQLLDKRFSYFLGLADENVEGQWQWVDKTPFNPHTVFWEKGESNDFMEEDCVVLVHVHEKWVWNDFPCHFEVRRICKLPGITFNWKPSK
0.312: [1]
-0.253: [12]
-0.038: [21]
-0.424: all other assays above

Source: the supplement of paper PMC8728848
